Source: the supplement of paper PMC4967469
A lower IC50 marks a more sensitive line; a fit beyond the top or the lowest dose is shown as a bound at that dose. The AUC spans the tested range (256-fold, ending at the top dose) of the same fit: 1 means no effect, lower means more sensitive. For part of these data: Any top dose called inferred was calculated from the reported fits.

Key:
Test in all cases: Viability of human cancer cell lines after 72 h of drug (GDSC screen)
Roscovitine = compound: CC[C@H](CO)Nc1nc(NCc2ccccc2)c2ncn(C(C)C)c2n1 [Roscovitine]; conditions: top dose 16 µM; top dose inferred
Description: (§1)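 Human cancer cell lines in 384-well plates, medium with 10% serum, drug for 72 h over a 256-fold dose range (nine 2-fold or five 4-fold steps up to the top dose). Adherent lines were fixed and stained with the nucleic acid dye Syto60, suspension lines read with resazurin; signal relative to control wells, capped at 0 and 100%. One two-parameter sigmoid per drug and line, fitted in a mixed model over all curves with the slope shared within a line.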

Midostaurin = compound: CO[C@@H]1[C@H](N(C)C(=O)c2ccccc2)C[C@H]2O[C@]1(C)n1c3ccccc3c3c4c(c5c6ccccc6n2c5c31)C(=O)NC4 [Midostaurin]; conditions: top dose 0.512 µM; top dose inferred
Description: as §1

Mitomycin C = compound: CO[C@@]12[C@H](COC(N)=O)C3=C(C(=O)C(C)=C(N)C3=O)N1C[C@@H]1N[C@@H]12 [Mitomycin C]; conditions: top dose 16 µM
Description: as §1

Bosutinib = compound: COc1cc(Nc2c(C#N)cnc3cc(OCCCN4CCN(C)CC4)c(OC)cc23)c(Cl)cc1Cl [Bosutinib]; conditions: top dose 2 µM
Description: as §1

NVP-BHG712 = compound: Cc1ccc(C(=O)Nc2cccc(C(F)(F)F)c2)cc1Nc1nc(-c2cccnc2)nc2c1cnn2C [NVP-BHG712]; conditions: top dose 10.24 µM; top dose inferred
Description: as §1

IOX2 = compound: O=C(O)CNC(=O)c1c(O)c2ccccc2n(Cc2ccccc2)c1=O [IOX2]; conditions: top dose 0.1 µM; top dose inferred
Description: as §1

Cell Line	AUC (Roscovitine)	IC50 (Roscovitine)	AUC (Midostaurin)	IC50 (Midostaurin)	AUC (Mitomycin C)	IC50 (Mitomycin C)	AUC (Bosutinib)	IC50 (Bosutinib)	AUC (NVP-BHG712)	IC50 (NVP-BHG712)	AUC (IOX2)	IC50 (IOX2)
LS-513 (large intestine, adherent)	0.867	15400 nM	0.983	> 512 nM	0.507	1040 nM	0.956	> 2000 nM	0.666	1890 nM	0.986	> 100 nM
NMC-G1 (glioma, adherent)	0.875	> 16000 nM	0.805	331 nM	0.284	210 nM	0.921	> 2000 nM	0.858	> 10200 nM	0.96	> 100 nM
JSC-1 (B-cell lymphoma, suspension)	0.888	> 16000 nM	0.92	> 512 nM	0.182	113 nM	0.978	> 2000 nM	0.628	1430 nM		
LB996-RCC (kidney, adherent)	0.943	> 16000 nM	0.904	> 512 nM	0.098	< 62.5 nM			0.95	> 10200 nM	0.975	> 100 nM
NEC8 (testis, adherent)	0.942	> 16000 nM	0.961	> 512 nM	0.223	184 nM	0.991	> 2000 nM	0.921	> 10200 nM	0.991	> 100 nM
COLO-668 (small cell lung carcinoma, adherent)	0.936	> 16000 nM	0.926	> 512 nM	0.073	< 62.5 nM	0.98	> 2000 nM	0.912	> 10200 nM	0.983	> 100 nM
BE2-M17 (neuroblastoma, adherent)	0.91	> 16000 nM	0.987	> 512 nM	0.614	2080 nM	0.987	> 2000 nM	0.952	> 10200 nM	0.986	> 100 nM
NB13 (neuroblastoma, adherent)	0.989	> 16000 nM	0.925	> 512 nM	0.364	443 nM	0.899	> 2000 nM	0.865	7350 nM	0.978	> 100 nM
ES4 (Ewing sarcoma, adherent)	0.947	> 16000 nM	0.914	> 512 nM	0.093	< 62.5 nM	0.783	975 nM			0.979	> 100 nM
ES1 (Ewing sarcoma, adherent)	0.948	> 16000 nM	0.879	511 nM	0.069	< 62.5 nM	0.877	1950 nM			0.97	> 100 nM
NCI-H1355 (lung adenocarcinoma, adherent)	0.932	> 16000 nM	0.885	> 512 nM	0.266	157 nM			0.978	> 10200 nM	0.971	> 100 nM
ES3 (Ewing sarcoma, adherent)	0.918	> 16000 nM	0.931	> 512 nM	0.078	< 62.5 nM			0.926	> 10200 nM	0.983	> 100 nM
SUP-B15 (lymphoblastic leukaemia, suspension)	0.938	> 16000 nM	0.893	> 512 nM	0.078	< 62.5 nM	0.793	871 nM	0.504	654 nM		
MZ7-mel (melanoma, adherent)	0.975	> 16000 nM	0.945	> 512 nM	0.382	467 nM			0.505	661 nM	0.984	> 100 nM
RCC10RGB (kidney, adherent)	0.924	> 16000 nM	0.874	> 512 nM	0.559	1690 nM	0.911	> 2000 nM	0.932	> 10200 nM		
JAR (urogenital system, adherent)	0.891	> 16000 nM	0.987	> 512 nM	0.748	5050 nM			0.988	> 10200 nM	0.959	> 100 nM
GCIY (stomach, adherent)	0.816	10400 nM	0.791	263 nM	0.376	433 nM	0.957	> 2000 nM	0.887	> 10200 nM		
SW954 (urogenital system, adherent)	0.965	> 16000 nM	0.86	439 nM	0.157	86.5 nM	0.85		0.89	> 10200 nM		
NB7 (neuroblastoma, adherent)	0.983	> 16000 nM	0.906	> 512 nM	0.603	1950 nM			0.942	> 10200 nM	0.92	> 100 nM
IST-SL2 (small cell lung carcinoma, suspension)	0.876	15700 nM	0.869	466 nM	0.342	366 nM	0.936	> 2000 nM			0.983	> 100 nM
NCI-H64 (small cell lung carcinoma, suspension)	0.995	> 16000 nM	0.977	> 512 nM	0.575	1520 nM	0.979	> 2000 nM	0.86	5280 nM		
NCI-H510A (small cell lung carcinoma, semi-adherent)	0.908	> 16000 nM	0.952	> 512 nM	0.359	421 nM	0.961	> 2000 nM	0.841	6280 nM		
SCC-15 (head and neck, adherent)	0.96	> 16000 nM	0.872	> 512 nM	0.45	695 nM			0.952	> 10200 nM	0.978	> 100 nM
MY-M12 (leukaemia, suspension)	0.949	> 16000 nM	0.956	> 512 nM	0.208	120 nM	0.74	675 nM	0.187	63.8 nM		

Cell Line	AUC (Roscovitine)	IC50 (Roscovitine)	AUC (Midostaurin)	IC50 (Midostaurin)	AUC (Mitomycin C)	IC50 (Mitomycin C)	AUC (Bosutinib)	IC50 (Bosutinib)	AUC (NVP-BHG712)	IC50 (NVP-BHG712)	AUC (IOX2)	IC50 (IOX2)
ES7 (Ewing sarcoma, adherent)	0.974	> 16000 nM	0.86	446 nM	0.055	< 62.5 nM	0.915	> 2000 nM			0.982	> 100 nM
HT-144 (melanoma, adherent)	0.924	> 16000 nM	0.85	461 nM	0.141	63.2 nM			0.941	> 10200 nM	0.979	> 100 nM
ES5 (Ewing sarcoma, adherent)	0.98	> 16000 nM	0.92	> 512 nM	0.545	1350 nM			0.869	> 10200 nM	0.975	> 100 nM
DOHH-2 (B-cell lymphoma, suspension)	0.936	> 16000 nM	0.923	> 512 nM	0.17	102 nM	0.878	1960 nM				
EHEB (lymphoid neoplasm, suspension)	0.923	> 16000 nM	0.953	> 512 nM	0.445	660 nM	0.898	> 2000 nM			0.975	> 100 nM
Hs-445 (Hodgkin lymphoma, suspension)	0.954	> 16000 nM	0.919	> 512 nM	0.095	< 62.5 nM			0.896	> 10200 nM	0.969	> 100 nM
SU-DHL-8 (B-cell lymphoma, suspension)	0.832	9250 nM	0.897	> 512 nM	0.216	158 nM			0.565	950 nM	0.985	> 100 nM
LB647-SCLC (small cell lung carcinoma, semi-adherent)	0.921	> 16000 nM	0.878	> 512 nM	0.346	354 nM	0.985	> 2000 nM			0.977	> 100 nM
LC-2-ad (lung adenocarcinoma, adherent)	0.975	> 16000 nM	0.669	96 nM	0.03	< 62.5 nM			0.913	> 10200 nM	0.977	> 100 nM
NCI-H2171 (small cell lung carcinoma, suspension)	0.978	> 16000 nM	0.916	> 512 nM	0.58	1610 nM			0.991	> 10200 nM		
UACC-812 (breast, adherent)	0.985	> 16000 nM	0.991	> 512 nM	0.818	8610 nM			0.947	> 10200 nM		
Ramos-2G6-4C10 (Burkitt lymphoma, suspension)	0.922	> 16000 nM	0.894	456 nM	0.607	1880 nM	0.834	1050 nM	0.86	6670 nM		
NCI-H1963 (small cell lung carcinoma, suspension)	0.907	> 16000 nM	0.904	> 512 nM	0.492	952 nM	0.991	> 2000 nM	0.97	> 10200 nM		
TE-10 (oesophagus, adherent)	0.932	> 16000 nM	0.923	> 512 nM	0.158	91.6 nM			0.985	> 10200 nM	0.981	> 100 nM
HCC1599 (breast, suspension)	0.896	> 16000 nM	0.898	> 512 nM	0.353	368 nM			0.828	7610 nM		
BB30-HNC (head and neck, adherent)	0.93	> 16000 nM	0.881	> 512 nM	0.127	67.6 nM	0.631	286 nM	0.93	> 10200 nM		
COLO-829 (melanoma, adherent)	0.973	> 16000 nM	0.919	> 512 nM	0.584	1890 nM			0.873	> 10200 nM	0.92	> 100 nM
IST-MES1 (mesothelioma, adherent)	0.979	> 16000 nM	0.92	> 512 nM	0.716	4120 nM			0.916	> 10200 nM	0.934	> 100 nM
DJM-1 (skin, adherent)	0.964	> 16000 nM	0.975	> 512 nM	0.464	796 nM	0.937	> 2000 nM	0.979	> 10200 nM		
SU-DHL-1 (anaplastic large cell lymphoma, suspension)	0.972	> 16000 nM	0.997	> 512 nM	0.214	201 nM			0.928	8150 nM		
IM-9 (myeloma, suspension)	0.992	> 16000 nM	0.957	> 512 nM	0.108	70 nM	0.98	> 2000 nM			0.991	> 100 nM
SW872 (soft tissue, adherent)	0.977	> 16000 nM	0.854	345 nM	0.034	< 62.5 nM			0.978	> 10200 nM	0.986	> 100 nM
LNCaP-Clone-FGC (prostate, adherent)	0.971	> 16000 nM	0.977	> 512 nM	0.381				0.904	> 10200 nM	0.873	> 100 nM
MHH-NB-11 (neuroblastoma, adherent)	0.872	> 16000 nM	0.985	> 512 nM	0.271	207 nM	0.85	1750 nM	0.765	4110 nM		
